# Data reported in paper PMC12820563, “FoxP3 forms a head-to-head dimer in vivo and stabilizes its multimerization on adjacent microsatellites”.
# The other results are listed elsewhere or left out.
# Molecular target: T1, MBP-FoxP1dN (Mus musculus, UniProt P58462 326-579)
# T1 sequence: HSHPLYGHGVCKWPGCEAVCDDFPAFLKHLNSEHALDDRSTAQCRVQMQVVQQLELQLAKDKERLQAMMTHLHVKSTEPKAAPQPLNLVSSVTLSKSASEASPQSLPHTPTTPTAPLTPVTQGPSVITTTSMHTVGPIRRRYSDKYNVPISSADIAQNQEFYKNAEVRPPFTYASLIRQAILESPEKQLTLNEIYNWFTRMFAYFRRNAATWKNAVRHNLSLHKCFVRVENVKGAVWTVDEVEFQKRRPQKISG
# Experiment: PD-seq (MBP pull-down with sequencing); 20 mM Tris-HCl pH 7.5, 100 mM NaCl, 1.5 mM MgCl2, 0.4 uM protein, 0.1 uM dsDNA library, 30 min, room temperature, amylose pull-down; high values mean tight binding
# Details: protein: recombinant; tags: His6-MBP; chain copies: 2; dsDNA, one strand shown
# Outline: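 In Tris pH 7.5 buffer with NaCl and MgCl2, 0.4 µM His6-MBP-tagged mouse FoxP3 or FoxP1 fragment lacking the N-terminus, from E. coli, met 0.1 µM Klenow-filled double-stranded degenerate DNA library for 30 min at room temperature. Three washes on amylose resin followed capture of the complexes, then proteinase K release of DNA, PCR barcoding and Illumina sequencing. Binding is taken as pooled-replicate reads-per-million enrichment of pull-down relative to input.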
row,Sequence,binding signal
1,GATGATTGTTCTCCCAGCTGATGAATTGAGAGACTCGAGTAAACAAATTTTCCTAATCTTTCTGTTCAAGCGCCATCTAC,0.84 RPM ratio (pull-down/input)
2,GATGATTGTTCTCCCAGCTGATGAATTCATATCCTCGAGTAAACAAATTTTCCTAATCTTTCTGTTCAAGCGCCATCTAC,0.875 RPM ratio (pull-down/input)
3,GATGATTGTTCTCCCAGCTGATGAATTCCTTAGGTCGAGTAAACAAATTTTCCTAATCTTTCTGTTCAAGCGCCATCTAC,0.791 RPM ratio (pull-down/input)
4,GATGATTGTTCTCCCAGCTGATGAATTATCAAGCTCGAGTAAACAAATTTTCCTAATCTTTCTGTTCAAGCGCCATCTAC,0.893 RPM ratio (pull-down/input)
5,GATGATTGTTCTCCCAGCTGATGAATTCCATAGTTCGAGTAAACAAATTTTCCTAATCTTTCTGTTCAAGCGCCATCTAC,0.828 RPM ratio (pull-down/input)
6,GATGATTGTTCTCCCAGCTGATGAATTATGTGCGTCGAGTAAACAAATTTTCCTAATCTTTCTGTTCAAGCGCCATCTAC,1.27 RPM ratio (pull-down/input)
7,GATGATTGTTCTCCCAGCTGATGAATTGCTGTTTTCGAGTAAACAAATTTTCCTAATCTTTCTGTTCAAGCGCCATCTAC,2.45 RPM ratio (pull-down/input)
8,GATGATTGTTCTCCCAGCTGATGAATTTATGTGCTCGAGTAAACAAATTTTCCTAATCTTTCTGTTCAAGCGCCATCTAC,1.18 RPM ratio (pull-down/input)
9,GATGATTGTTCTCCCAGCTGATGAATTTGAATTGTCGAGTAAACAAATTTTCCTAATCTTTCTGTTCAAGCGCCATCTAC,0.982 RPM ratio (pull-down/input)
10,GATGATTGTTCTCCCAGCTGATGAATTAGATCTTTCGAGTAAACAAATTTTCCTAATCTTTCTGTTCAAGCGCCATCTAC,0.854 RPM ratio (pull-down/input)
11,GATGATTGTTCTCCCAGCTGATGAATTCTCTGGATCGAGTAAACAAATTTTCCTAATCTTTCTGTTCAAGCGCCATCTAC,0.742 RPM ratio (pull-down/input)
12,GATGATTGTTCTCCCAGCTGATGAATTCAAAACTTCGAGTAAACAAATTTTCCTAATCTTTCTGTTCAAGCGCCATCTAC,0.933 RPM ratio (pull-down/input)
13,GATGATTGTTCTCCCAGCTGATGAATTGGGTTCGTCGAGTAAACAAATTTTCCTAATCTTTCTGTTCAAGCGCCATCTAC,0.845 RPM ratio (pull-down/input)
14,GATGATTGTTCTCCCAGCTGATGAATTGCATGAGTCGAGTAAACAAATTTTCCTAATCTTTCTGTTCAAGCGCCATCTAC,0.973 RPM ratio (pull-down/input)
15,GATGATTGTTCTCCCAGCTGATGAATTTGTAGCATCGAGTAAACAAATTTTCCTAATCTTTCTGTTCAAGCGCCATCTAC,1.37 RPM ratio (pull-down/input)
16,GATGATTGTTCTCCCAGCTGATGAATTGCCAGTGTCGAGTAAACAAATTTTCCTAATCTTTCTGTTCAAGCGCCATCTAC,0.843 RPM ratio (pull-down/input)
17,GATGATTGTTCTCCCAGCTGATGAATTTCAACGTTCGAGTAAACAAATTTTCCTAATCTTTCTGTTCAAGCGCCATCTAC,0.856 RPM ratio (pull-down/input)
18,GATGATTGTTCTCCCAGCTGATGAATTACCACAGTCGAGTAAACAAATTTTCCTAATCTTTCTGTTCAAGCGCCATCTAC,0.985 RPM ratio (pull-down/input)
19,GATGATTGTTCTCCCAGCTGATGAATTTACCAAGTCGAGTAAACAAATTTTCCTAATCTTTCTGTTCAAGCGCCATCTAC,1.16 RPM ratio (pull-down/input)
20,GATGATTGTTCTCCCAGCTGATGAATTCCTGAAGTCGAGTAAACAAATTTTCCTAATCTTTCTGTTCAAGCGCCATCTAC,0.808 RPM ratio (pull-down/input)
21,GATGATTGTTCTCCCAGCTGATGAATTCCATCAGTCGAGTAAACAAATTTTCCTAATCTTTCTGTTCAAGCGCCATCTAC,0.814 RPM ratio (pull-down/input)

row,Sequence,binding signal
1,GATGATTGTTCTCCCAGCTGATGAATTGCCATGGTCGAGTAAACAAATTTTCCTAATCTTTCTGTTCAAGCGCCATCTAC,0.932 RPM ratio (pull-down/input)
2,GATGATTGTTCTCCCAGCTGATGAATTCCCATTCTCGAGTAAACAAATTTTCCTAATCTTTCTGTTCAAGCGCCATCTAC,0.789 RPM ratio (pull-down/input)
3,GATGATTGTTCTCCCAGCTGATGAATTTCGGAAGTCGAGTAAACAAATTTTCCTAATCTTTCTGTTCAAGCGCCATCTAC,0.772 RPM ratio (pull-down/input)
4,GATGATTGTTCTCCCAGCTGATGAATTTACGGGGTCGAGTAAACAAATTTTCCTAATCTTTCTGTTCAAGCGCCATCTAC,0.972 RPM ratio (pull-down/input)
5,GATGATTGTTCTCCCAGCTGATGAATTCCTAATATCGAGTAAACAAATTTTCCTAATCTTTCTGTTCAAGCGCCATCTAC,1.07 RPM ratio (pull-down/input)
6,GATGATTGTTCTCCCAGCTGATGAATTCCCGATGTCGAGTAAACAAATTTTCCTAATCTTTCTGTTCAAGCGCCATCTAC,0.877 RPM ratio (pull-down/input)
7,GATGATTGTTCTCCCAGCTGATGAATTGACTTCATCGAGTAAACAAATTTTCCTAATCTTTCTGTTCAAGCGCCATCTAC,1.04 RPM ratio (pull-down/input)
8,GATGATTGTTCTCCCAGCTGATGAATTCCTTAGTTCGAGTAAACAAATTTTCCTAATCTTTCTGTTCAAGCGCCATCTAC,0.811 RPM ratio (pull-down/input)
9,GATGATTGTTCTCCCAGCTGATGAATTCTCCATGTCGAGTAAACAAATTTTCCTAATCTTTCTGTTCAAGCGCCATCTAC,0.807 RPM ratio (pull-down/input)
10,GATGATTGTTCTCCCAGCTGATGAATTACTTCTTTCGAGTAAACAAATTTTCCTAATCTTTCTGTTCAAGCGCCATCTAC,1.02 RPM ratio (pull-down/input)
11,GATGATTGTTCTCCCAGCTGATGAATTTGACTGTTCGAGTAAACAAATTTTCCTAATCTTTCTGTTCAAGCGCCATCTAC,0.833 RPM ratio (pull-down/input)
12,GATGATTGTTCTCCCAGCTGATGAATTTGGGCTATCGAGTAAACAAATTTTCCTAATCTTTCTGTTCAAGCGCCATCTAC,0.92 RPM ratio (pull-down/input)
13,GATGATTGTTCTCCCAGCTGATGAATTGGATAACTCGAGTAAACAAATTTTCCTAATCTTTCTGTTCAAGCGCCATCTAC,0.879 RPM ratio (pull-down/input)
14,GATGATTGTTCTCCCAGCTGATGAATTTCTTAATTCGAGTAAACAAATTTTCCTAATCTTTCTGTTCAAGCGCCATCTAC,1.04 RPM ratio (pull-down/input)
15,GATGATTGTTCTCCCAGCTGATGAATTCATACTATCGAGTAAACAAATTTTCCTAATCTTTCTGTTCAAGCGCCATCTAC,1.06 RPM ratio (pull-down/input)
16,GATGATTGTTCTCCCAGCTGATGAATTTGCTAGATCGAGTAAACAAATTTTCCTAATCTTTCTGTTCAAGCGCCATCTAC,1.01 RPM ratio (pull-down/input)
17,GATGATTGTTCTCCCAGCTGATGAATTTCTTCTGTCGAGTAAACAAATTTTCCTAATCTTTCTGTTCAAGCGCCATCTAC,0.874 RPM ratio (pull-down/input)
18,GATGATTGTTCTCCCAGCTGATGAATTTGATGCGTCGAGTAAACAAATTTTCCTAATCTTTCTGTTCAAGCGCCATCTAC,1.13 RPM ratio (pull-down/input)
19,GATGATTGTTCTCCCAGCTGATGAATTGTTATCCTCGAGTAAACAAATTTTCCTAATCTTTCTGTTCAAGCGCCATCTAC,1.55 RPM ratio (pull-down/input)
20,GATGATTGTTCTCCCAGCTGATGAATTACTCCATTCGAGTAAACAAATTTTCCTAATCTTTCTGTTCAAGCGCCATCTAC,1.12 RPM ratio (pull-down/input)
21,GATGATTGTTCTCCCAGCTGATGAATTCTTGGGATCGAGTAAACAAATTTTCCTAATCTTTCTGTTCAAGCGCCATCTAC,0.77 RPM ratio (pull-down/input)

row,Sequence,binding signal
1,GATGATTGTTCTCCCAGCTGATGAATTTTGGCCGTCGAGTAAACAAATTTTCCTAATCTTTCTGTTCAAGCGCCATCTAC,0.859 RPM ratio (pull-down/input)
2,GATGATTGTTCTCCCAGCTGATGAATTCATTTCTTCGAGTAAACAAATTTTCCTAATCTTTCTGTTCAAGCGCCATCTAC,0.913 RPM ratio (pull-down/input)
3,GATGATTGTTCTCCCAGCTGATGAATTGATCACCTCGAGTAAACAAATTTTCCTAATCTTTCTGTTCAAGCGCCATCTAC,0.971 RPM ratio (pull-down/input)
4,GATGATTGTTCTCCCAGCTGATGAATTCTACAGCTCGAGTAAACAAATTTTCCTAATCTTTCTGTTCAAGCGCCATCTAC,0.835 RPM ratio (pull-down/input)
5,GATGATTGTTCTCCCAGCTGATGAATTAGCTTAGTCGAGTAAACAAATTTTCCTAATCTTTCTGTTCAAGCGCCATCTAC,0.881 RPM ratio (pull-down/input)
6,GATGATTGTTCTCCCAGCTGATGAATTTTGGCCATCGAGTAAACAAATTTTCCTAATCTTTCTGTTCAAGCGCCATCTAC,0.945 RPM ratio (pull-down/input)
7,GATGATTGTTCTCCCAGCTGATGAATTGTACAATTCGAGTAAACAAATTTTCCTAATCTTTCTGTTCAAGCGCCATCTAC,1.08 RPM ratio (pull-down/input)
8,GATGATTGTTCTCCCAGCTGATGAATTCTCCCCTTCGAGTAAACAAATTTTCCTAATCTTTCTGTTCAAGCGCCATCTAC,0.883 RPM ratio (pull-down/input)
9,GATGATTGTTCTCCCAGCTGATGAATTACCGCTATCGAGTAAACAAATTTTCCTAATCTTTCTGTTCAAGCGCCATCTAC,1.1 RPM ratio (pull-down/input)
10,GATGATTGTTCTCCCAGCTGATGAATTCCCGGGATCGAGTAAACAAATTTTCCTAATCTTTCTGTTCAAGCGCCATCTAC,0.785 RPM ratio (pull-down/input)
11,GATGATTGTTCTCCCAGCTGATGAATTGTCCGGCTCGAGTAAACAAATTTTCCTAATCTTTCTGTTCAAGCGCCATCTAC,0.894 RPM ratio (pull-down/input)
12,GATGATTGTTCTCCCAGCTGATGAATTTTAATCATCGAGTAAACAAATTTTCCTAATCTTTCTGTTCAAGCGCCATCTAC,1.06 RPM ratio (pull-down/input)
13,GATGATTGTTCTCCCAGCTGATGAATTGGCACAATCGAGTAAACAAATTTTCCTAATCTTTCTGTTCAAGCGCCATCTAC,1.34 RPM ratio (pull-down/input)
14,GATGATTGTTCTCCCAGCTGATGAATTACCCAGATCGAGTAAACAAATTTTCCTAATCTTTCTGTTCAAGCGCCATCTAC,0.925 RPM ratio (pull-down/input)
15,GATGATTGTTCTCCCAGCTGATGAATTCATATGTTCGAGTAAACAAATTTTCCTAATCTTTCTGTTCAAGCGCCATCTAC,1.15 RPM ratio (pull-down/input)
16,GATGATTGTTCTCCCAGCTGATGAATTGTTCTCATCGAGTAAACAAATTTTCCTAATCTTTCTGTTCAAGCGCCATCTAC,1.18 RPM ratio (pull-down/input)
17,GATGATTGTTCTCCCAGCTGATGAATTTGGGCGGTCGAGTAAACAAATTTTCCTAATCTTTCTGTTCAAGCGCCATCTAC,0.774 RPM ratio (pull-down/input)
18,GATGATTGTTCTCCCAGCTGATGAATTTGCCTCCTCGAGTAAACAAATTTTCCTAATCTTTCTGTTCAAGCGCCATCTAC,0.95 RPM ratio (pull-down/input)
19,GATGATTGTTCTCCCAGCTGATGAATTATTCACCTCGAGTAAACAAATTTTCCTAATCTTTCTGTTCAAGCGCCATCTAC,1.02 RPM ratio (pull-down/input)
20,GATGATTGTTCTCCCAGCTGATGAATTGGGATATTCGAGTAAACAAATTTTCCTAATCTTTCTGTTCAAGCGCCATCTAC,0.954 RPM ratio (pull-down/input)
21,GATGATTGTTCTCCCAGCTGATGAATTGTAGCATTCGAGTAAACAAATTTTCCTAATCTTTCTGTTCAAGCGCCATCTAC,1.31 RPM ratio (pull-down/input)
